Data on 86 compounds can be found in PMC4336329 (PLoS ONE, 2015).

The whole screen tested about 310,000 compounds, of which about 14,000 (4.5%) showed an effect of 50% or more. Effects have a minus sign here. The list shows a part of the results.
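Also: peak tail current of the secondary pulse compared with the same well before compound.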

Sequence of human ether-à-go-go-related gene (hERG) potassium channel (Q12809 whole entry, looked up): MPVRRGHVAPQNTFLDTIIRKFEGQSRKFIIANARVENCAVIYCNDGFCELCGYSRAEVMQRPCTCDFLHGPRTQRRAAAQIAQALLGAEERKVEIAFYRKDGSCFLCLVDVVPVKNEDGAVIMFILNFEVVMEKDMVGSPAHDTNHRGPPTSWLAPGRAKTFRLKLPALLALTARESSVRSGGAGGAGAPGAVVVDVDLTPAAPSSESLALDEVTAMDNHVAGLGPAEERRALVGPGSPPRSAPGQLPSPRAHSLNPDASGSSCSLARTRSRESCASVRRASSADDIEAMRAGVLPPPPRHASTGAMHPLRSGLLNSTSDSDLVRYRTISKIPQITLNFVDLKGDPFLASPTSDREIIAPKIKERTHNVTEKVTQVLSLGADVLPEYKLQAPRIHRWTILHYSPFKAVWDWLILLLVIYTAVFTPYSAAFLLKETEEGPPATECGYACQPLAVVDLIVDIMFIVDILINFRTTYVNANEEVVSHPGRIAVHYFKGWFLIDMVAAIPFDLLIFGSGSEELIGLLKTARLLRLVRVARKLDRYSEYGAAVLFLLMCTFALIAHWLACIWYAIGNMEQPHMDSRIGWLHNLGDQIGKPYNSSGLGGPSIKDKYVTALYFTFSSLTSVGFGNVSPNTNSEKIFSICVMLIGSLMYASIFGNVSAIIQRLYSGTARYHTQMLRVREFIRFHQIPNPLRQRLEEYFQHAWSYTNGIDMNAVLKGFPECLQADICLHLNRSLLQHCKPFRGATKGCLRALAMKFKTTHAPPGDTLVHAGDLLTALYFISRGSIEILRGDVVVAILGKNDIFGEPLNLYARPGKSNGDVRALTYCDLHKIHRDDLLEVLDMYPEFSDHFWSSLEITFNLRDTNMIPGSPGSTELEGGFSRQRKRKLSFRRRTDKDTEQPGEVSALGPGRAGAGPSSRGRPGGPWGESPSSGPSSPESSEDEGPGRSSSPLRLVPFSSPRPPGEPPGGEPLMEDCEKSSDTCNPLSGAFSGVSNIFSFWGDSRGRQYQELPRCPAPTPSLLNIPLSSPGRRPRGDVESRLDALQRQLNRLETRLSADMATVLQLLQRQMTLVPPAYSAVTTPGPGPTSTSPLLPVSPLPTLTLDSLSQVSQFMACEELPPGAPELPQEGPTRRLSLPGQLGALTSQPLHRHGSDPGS

This assay addresses human ether-à-go-go-related gene (hERG) potassium channel (human, UniProt Q12809). Description: primary screen, population patch clamp on CHO cells stably expressing hERG.
`Cc1cc(F)c(F)c(C(=O)N2CCOCC2)c1Cl`: the “hERG current change (%, negative = inhibition) at 10uM” value is 28.8%. `COCCCNC(=O)c1ccc(CSCc2ccc(C)cc2)o1`: the “hERG current change (%, negative = inhibition) at 10uM” value is on record as -12.5%. Then `CS(=O)(=O)N(CC(=O)NCCSCc1ccco1)c1ccc2c(c1)OCO2`, with 2.88%. Then `COC(=O)c1sccc1NC(=O)CSc1ccc(Cl)cc1`, with 4.19%.

Turning to `Cc1cccc(C(=O)N2CCN(Cc3ccc4c(c3)OCO4)CC2)c1`, the “hERG current change (%, negative = inhibition) at 10uM” value is recorded as -14.1%. Then `COc1ccc(NS(=O)(=O)c2cccc(C(=O)NCC(c3ccc(OC)cc3)N3CCOCC3)c2)cc1` (centres unmarked), with -26.1%; and `Cc1ccc(CNC(=O)C(=O)NCC2CCCN2S(=O)(=O)c2cc(C)ccc2C)cc1` (centres unmarked), with -18.4%. Then `O=C(CSc1nncc2ccccc12)Nc1cccc(C(=O)O)c1`, with 15.5%. Then `Cc1cc(C(=O)Nc2c(F)cc(F)cc2Br)n(-c2ccccc2)n1`, with 16%; and `O=S1(=O)[C@H]2C[C@@H]3C=C[C@@]2(CN1Cc1cccc(Cl)c1)O3`, with -2.05%. Take `COc1ccc(S(=O)(=O)N2CCCCCC2)cc1C(=O)N(C)Cc1ccc(F)cc1`: the “hERG current change (%, negative = inhibition) at 10uM” value is -38.1%. `COC(=O)CN1C(=O)[C@H]2[C@@H](c3ccc(C)o3)N3C(=O)CN(Cc4ccccn4)C(=O)[C@@]3(C)[C@H]2C1=O`: the “hERG current change (%, negative = inhibition) at 10uM” value came to 0.901%.

As for `Cc1ccc(CNC(=O)CN(C(=O)C2(C)CC(=O)N=C3C=CC=CN32)c2ccccc2F)cc1` (centres unmarked), the “hERG current change (%, negative = inhibition) at 10uM” value is 14.5%.

Turning to `CCc1ccc(OCC(=O)OCC(=O)c2ccc3c(c2)NC(=O)CO3)cc1`, the “hERG current change (%, negative = inhibition) at 10uM” value is 12%. Regarding `Cc1nn2c(NCCCn3ccnc3)cc(C(C)C)nc2c1-c1ccccc1`, the “hERG current change (%, negative = inhibition) at 10uM” value was -23.5%. Regarding `Cn1c(SCC(=O)c2cccs2)nnc1-c1ccco1`, the “hERG current change (%, negative = inhibition) at 10uM” value was found to be 11.8%.

`CNc1c(NC(=O)C2CCC(C)CC2)c(=O)oc2ccccc12` (centres unmarked): the “hERG current change (%, negative = inhibition) at 10uM” value turned out to be 0.302%. As for `CCc1ccc(-c2cc(C)no2)cc1S(=O)(=O)Nc1ccccn1`, the “hERG current change (%, negative = inhibition) at 10uM” value amounted to 23%. For the compound `N#C/C(=N/Nc1ccccc1[N+](=O)[O-])C(N)=S`, the “hERG current change (%, negative = inhibition) at 10uM” value is listed as 9.51%. Turning to `Cc1cccc(C)c1NC(=O)Nc1ccccc1-n1ccnc1`, the “hERG current change (%, negative = inhibition) at 10uM” value was -5.16%. Then `O=S(=O)(/N=C(/Nc1ccccc1)c1ccccc1)c1cccs1`, with 12.1%; and `Cc1ccc(-c2nn3c(C)nnc3s2)cc1NC(=O)c1ccc(-c2ccc(Cl)cc2Cl)o1`, with -11%. Then `CCOc1ccccc1NC(=O)c1ccc2ccccc2c1`, with -1.85%. Then `CNC(=S)N1CC2CC(C1)c1cccc(=O)n1C2` (centres unmarked), with 20.6%; and `O=C(Nc1ccc(S(=O)(=O)NCc2ccco2)cc1)c1cccc(F)c1`, with -5.94%; and `O=C(CN1C(=O)c2ccccc2C1=O)Nc1ccccc1C(=O)N1CCCC1`, with 2.46%. For the compound `CCOc1cccc2sc(N(CCCN(C)C)C(=O)Cc3ccccc3)nc12.Cl`, the “hERG current change (%, negative = inhibition) at 10uM” value is -80.2%. Then `COCCn1c(=O)[nH]c2cc(C(=O)N3CCN(c4cccc(Cl)c4)CC3)ccc2c1=O`, with -6.04%.

`COc1ccc(CNC(=O)[C@H](C)NC(=O)C2CCN(S(=O)(=O)c3ccc(F)cc3)CC2)cc1`: the “hERG current change (%, negative = inhibition) at 10uM” value is 14.8%. Then `CCCC1S/C(=N/N=C/c2ccc(OC)cc2)N(Cc2ccccc2)C1=O` (centres unmarked), with 3.46%. Then `CCN(CC)CCC(c1cc(OC)c(OC)c(OC)c1)c1c(OC)cc(OC)c2ccc(=O)oc12` (centres unmarked), with -41.2%; and `CCCc1c(C(=O)N/N=C/c2cccnc2)nnn1-c1nonc1N`, with 12.6%.

In the case of `CCOc1ccc(C2CC(c3ccc(CC)cc3)n3nc(N)nc3N2)cc1` (centres unmarked), the “hERG current change (%, negative = inhibition) at 10uM” value came out at 1.14%. As to `Cc1cn(-c2cc(C(=O)Nc3ccc(C)c(NC(=O)C(=O)c4c[nH]c5ccccc45)c3)cc(C(F)(F)F)c2)cn1`, the “hERG current change (%, negative = inhibition) at 10uM” value stood at 1.92%. `COc1ccc(C2=NN(C(=O)c3ccccc3)C(c3cccc([N+](=O)[O-])c3)C2)cc1` (centres unmarked): the “hERG current change (%, negative = inhibition) at 10uM” value is -13%.

On to `O=C(NCCn1cccc1)c1cccc2ccccc12`, for which the “hERG current change (%, negative = inhibition) at 10uM” value is listed as -0.492%. Regarding `COc1ccc(C(CNC(=O)COc2ccc(Cl)c(C)c2)N2CCCCC2)cc1` (centres unmarked), the “hERG current change (%, negative = inhibition) at 10uM” value was -44.6%. Regarding `CN(CCC(=O)Nc1ccc2c(c1)OCO2)Cc1ccccc1.Cl`, the “hERG current change (%, negative = inhibition) at 10uM” value amounted to 7.32%. On to `COc1ccc(-c2cn3c(C)c(C(=O)N4CCCc5ccccc54)sc3n2)cc1`, for which the “hERG current change (%, negative = inhibition) at 10uM” value is -16%. Consider `COC(=O)C1(C)NC(c2cccs2)C2C(=O)N(c3ccccc3F)C(=O)C21` (centres unmarked), for which the “hERG current change (%, negative = inhibition) at 10uM” value was 0.956%.

With `CCn1c(C)c(Br)c(=O)c(C(=O)OC)c1-c1ccc(Cl)cc1`, the “hERG current change (%, negative = inhibition) at 10uM” value was found to be 19.2%. Take `O=C(NCc1ccc2c(c1)OCO2)C1CCCN1C(=O)Nc1cccc(Cl)c1` (centres unmarked): the “hERG current change (%, negative = inhibition) at 10uM” value is reported as -25.4%. Then `O=C(Cc1cccc(C(F)(F)F)c1)Nc1ccc(S(=O)(=O)N2CCCC2)cc1`, with -5.79%; and `COc1ccc(CNC(=O)C2CCN(S(=O)(=O)N3CCCC3)CC2)c(OC)c1`, with 4.62%. Then `O=C(Nc1ccc(S(=O)(=O)N2CCc3ccccc32)cc1)c1ccco1`, with 0.483%; and `CC1CCCC(NC(=O)CSC2=Nc3ccccc3C3CC=NN23)C1C` (centres unmarked), with -26.5%; and `COc1ccccc1C1CCCN1Cc1nc(-c2ccc(C)s2)oc1C` (centres unmarked), with -40.4%. For `Cc1occc(=O)c1OCc1c(F)cccc1Cl`, the “hERG current change (%, negative = inhibition) at 10uM” value turned out to be 10.6%.

As to `CC(C)Oc1ccccc1/C=N/NC(=O)C1CC1`, the “hERG current change (%, negative = inhibition) at 10uM” value is 7.57%. Then `COc1ccc(CCNC(=O)CSc2ccccn2)cc1OC`, with 17.5%; and `CC(C)CCC(=O)N1CCC(N2CCC(C(=O)NCc3ccccn3)CC2)CC1`, with 16.1%; and `Cc1cc(C)n(-c2nc3ccccc3nc2NCCc2ccccc2)n1`, with 5.83%. For `COc1ccc2oc(C(=O)Nc3ccc(N4CCOCC4)cc3)c(C)c2c1`, the “hERG current change (%, negative = inhibition) at 10uM” value is on record as -8.09%. `COc1ccccc1C(OC(=O)c1cccs1)C(=O)NCc1ccco1` (centres unmarked): the “hERG current change (%, negative = inhibition) at 10uM” value amounted to 10.6%. Then `COCCn1c(Sc2ccccc2)nc2c1c(=O)[nH]c(=O)n2C`, with -1.42%; and `CCCN(C(=O)Cn1c(C(F)(F)F)nc2ccccc21)C1CCS(=O)(=O)C1` (centres unmarked), with 11.9%; and `COc1ccc(CN(C)CC(=O)N(C)CC(=O)Nc2ccccc2Br)cc1F`, with -39.1%. For `Cc1cccn2c(=O)c3cc(C#N)c(=NC(=O)c4ccco4)n(Cc4ccco4)c3nc12`, the “hERG current change (%, negative = inhibition) at 10uM” value is listed as -55.4%. In the case of `CCS(=O)(=O)c1ccc2oc(Nc3cc(C)cc(C)c3)nc2c1`, the “hERG current change (%, negative = inhibition) at 10uM” value was -5.33%.

`COC(=O)[C@]1(C)CCC[C@@]2(C)C3CC[C@]4(OC(C)=O)C[C@@]3(CCC21)CC4=O` (some centres unmarked): the “hERG current change (%, negative = inhibition) at 10uM” value was -4.32%.

With `COc1cc(/C=C/C(=O)c2ccc(NS(=O)(=O)c3ccc(C)cc3)cc2)ccc1OC(F)F`, the “hERG current change (%, negative = inhibition) at 10uM” value came out at 10.3%. Then `CC(=O)Nc1cccc([N+](=O)[O-])c1`, with 11.1%. Regarding `O=Cc1ccccc1-c1cn(CN2C(=O)c3ccccc3C2=O)nn1`, the “hERG current change (%, negative = inhibition) at 10uM” value is given as 3.42%. Then `CCN(CC)C(=O)c1ccc(NC(=O)c2cc(-n3cnnc3)ccc2Cl)cc1`, with 11.5%; and `CCN1C(=O)/C(=C/N(C)C)c2ccccc21`, with -6.17%.

With `Cc1cc(N/N=C/c2ccc(N(C)C)cc2)c2ccccc2n1`, the “hERG current change (%, negative = inhibition) at 10uM” value came out at 12.3%. Then `COc1cccc(-n2c(-c3cccc(S(=O)(=O)N(C)C)c3)n[nH]c2=S)c1`, with 8.65%; and `Cn1c(=O)c2c(nc(Sc3nc4ccccc4n3CC(=O)N3CCCCC3)n2C)n(C)c1=O`, with 6.27%; and `CCOC(=O)c1cn2nc(Oc3ccc(C(=O)OC)cc3)ccc2n1`, with -8.98%. Take `CCOc1ccccc1OCC(=O)Nc1c(C)n(C)n(-c2ccccc2)c1=O`: the “hERG current change (%, negative = inhibition) at 10uM” value was -6.05%. For the compound `CCC1=NN2C(=N)/C(=C\c3cccn3-c3c(C)cccc3C)C(=O)N=C2S1`, the “hERG current change (%, negative = inhibition) at 10uM” value was -79.4%. Turning to `CCOc1c(Cl)cc(C(=O)Nc2ccccc2-c2ccccc2)cc1Cl`, the “hERG current change (%, negative = inhibition) at 10uM” value was 14.5%. Then `Cl.NCCCP(=O)(O)CCc1ccccc1`, with 4.1%. Then `CCOc1cc(C(=O)N/N=C/c2ccsc2)cc(OCC)c1OCC`, with 1.12%; and `COc1ccc(C(=O)NC(C)c2nnc(SCC(=O)NC3CCCCC3)n2C)cc1` (centres unmarked), with 5.98%; and `O=C(NCCCNCCCNC(=O)c1ccc(/C=N/O)nc1)c1ccc(/C=N/O)nc1`, with 7.14%.

On to `N#Cc1cccc(NC(=O)COc2ccc(-n3ccnc3)cc2)c1`, for which the “hERG current change (%, negative = inhibition) at 10uM” value was -67.5%. Then `O=C(O)Cc1csc(-c2cccc(F)c2)n1`, with 19.1%; and `CN1CCCN(C(=O)c2cc(-c3ccc(Cl)c(Cl)c3Cl)nc3ccccc23)CC1.Cl`, with -69%. Then `COc1ccc(NC(=O)CN2c3cccc4cccc(c34)S2(=O)=O)c(OC)c1`, with -1.8%; and `Cn1ncc2c(Nc3ccc(Cl)c(Cl)c3)ncnc21`, with 14.5%. `COc1ccc(N2C(=O)CC(Sc3ncn[nH]3)C2=O)c(OC)c1` (centres unmarked): the “hERG current change (%, negative = inhibition) at 10uM” value is -3.68%.

On to `CCn1ncc(C2=NOC(C(=O)Nc3ccc(C)cc3)C2)c1C` (centres unmarked), for which the “hERG current change (%, negative = inhibition) at 10uM” value worked out at 8.96%.

With `COc1ccccc1N1C(N)=NC(N)=NC12CCCCC2.Cl`, the “hERG current change (%, negative = inhibition) at 10uM” value came out at 11.4%. Then `CC1CCN(c2ccc3c(c2)S(=O)(=O)c2cccc(C(=O)NCc4cccc(F)c4)c2C3=O)CC1`, with 7.58%; and `Nc1cc(C(=O)O)ccc1Nc1ccccc1`, with -2.6%.
